The source of these data is paper PMC9911399, “Two distinct binding modes provide the RNA-binding protein RbFox with extraordinary sequence specificity”.

The labels stand for the following.
T1: RBFOX1 RRM (Homo sapiens, UniProt Q9NWB1 109-208)
T1 sequence: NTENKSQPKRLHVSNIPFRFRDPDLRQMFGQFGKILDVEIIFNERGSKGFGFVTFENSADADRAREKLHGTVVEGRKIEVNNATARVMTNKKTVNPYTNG

B1: CUCCUAG (DNA:RNA)
RNA: GGGAGACCGGAAUUCAGAUUGUCCCUCCUAGUUAAAUCCCGUCGUAGCCACCA
DNA 1: CAATCTGAATTCCGGTCTCCC
DNA 2: TGGTGGCTACGACGGGATT
B2: GGCACAU (DNA:RNA)
RNA: B1 RNA with C25G, U26G, C28A, U29C, G31U
DNA 1: CAATCTGAATTCCGGTCTCCC
DNA 2: TGGTGGCTACGACGGGATT
B3: CACUCAA (DNA:RNA)
RNA: B1 RNA with U26A, C28U, U29C, G31A
DNA 1: CAATCTGAATTCCGGTCTCCC
DNA 2: TGGTGGCTACGACGGGATT
B4: CGGCGCC (DNA:RNA)
RNA: B1 RNA with U26G, C27G, U29G, A30C, G31C
DNA 1: CAATCTGAATTCCGGTCTCCC
DNA 2: TGGTGGCTACGACGGGATT
B5: GAGCUGG (DNA:RNA)
RNA: B1 RNA with C25G, U26A, C27G, A30G
DNA 1: CAATCTGAATTCCGGTCTCCC
DNA 2: TGGTGGCTACGACGGGATT
B6: UAUUUUC (DNA:RNA)
RNA: B1 RNA with C25U, U26A, C27U, C28U, A30U, G31C
DNA 1: CAATCTGAATTCCGGTCTCCC
DNA 2: TGGTGGCTACGACGGGATT
B7: GGUUUGU (DNA:RNA)
RNA: B1 RNA with C25G, U26G, C27U, C28U, A30G, G31U
DNA 1: CAATCTGAATTCCGGTCTCCC
DNA 2: TGGTGGCTACGACGGGATT
B8: GAGAGGU (DNA:RNA)
RNA: GGGAGACCGGAAUUCAGAUUGUCCGAGAGGUUUAAAUCCCGUCGUAGCCACCA
DNA 1: CAATCTGAATTCCGGTCTCCC
DNA 2: TGGTGGCTACGACGGGATT
B9: CACUUUC (DNA:RNA)
RNA: B1 RNA with U26A, C28U, A30U, G31C
DNA 1: CAATCTGAATTCCGGTCTCCC
DNA 2: TGGTGGCTACGACGGGATT
B10: CGCAUCG (DNA:RNA)
RNA: B1 RNA with U26G, C28A, A30C
DNA 1: CAATCTGAATTCCGGTCTCCC
DNA 2: TGGTGGCTACGACGGGATT
B11: GAUGUCA (DNA:RNA)
RNA: B8 RNA with G27U, A28G, G29U, G30C, U31A
DNA 1: CAATCTGAATTCCGGTCTCCC
DNA 2: TGGTGGCTACGACGGGATT
B12: UGUAGUC (DNA:RNA)
RNA: B8 RNA with G25U, A26G, G27U, G30U, U31C
DNA 1: CAATCTGAATTCCGGTCTCCC
DNA 2: TGGTGGCTACGACGGGATT
B13: AGUGCGG (DNA:RNA)
RNA: B1 RNA with C25A, U26G, C27U, C28G, U29C, A30G
DNA 1: CAATCTGAATTCCGGTCTCCC
DNA 2: TGGTGGCTACGACGGGATT
B14: CCUCUAU (DNA:RNA)
RNA: B1 RNA with U26C, C27U, G31U
DNA 1: CAATCTGAATTCCGGTCTCCC
DNA 2: TGGTGGCTACGACGGGATT
B15: UUAAUAG (DNA:RNA)
RNA: B1 RNA with C25U, C27A, C28A
DNA 1: CAATCTGAATTCCGGTCTCCC
DNA 2: TGGTGGCTACGACGGGATT
B16: CACGACC (DNA:RNA)
RNA: B1 RNA with U26A, C28G, U29A, A30C, G31C
DNA 1: CAATCTGAATTCCGGTCTCCC
DNA 2: TGGTGGCTACGACGGGATT
B17: ACCAAUG (DNA:RNA)
RNA: B1 RNA with C25A, U26C, C28A, U29A, A30U
DNA 1: CAATCTGAATTCCGGTCTCCC
DNA 2: TGGTGGCTACGACGGGATT
B18: CGUACCU (DNA:RNA)
RNA: B8 RNA with G25C, A26G, G27U, G29C, G30C
DNA 1: CAATCTGAATTCCGGTCTCCC
DNA 2: TGGTGGCTACGACGGGATT
B19: CCGGCGU (DNA:RNA)
RNA: B8 RNA with G25C, A26C, A28G, G29C
DNA 1: CAATCTGAATTCCGGTCTCCC
DNA 2: TGGTGGCTACGACGGGATT
B20: ACCUUAU (DNA:RNA)
RNA: B1 RNA with C25A, U26C, C28U, G31U
DNA 1: CAATCTGAATTCCGGTCTCCC
DNA 2: TGGTGGCTACGACGGGATT
B21: UGUACCG (DNA:RNA)
RNA: B1 RNA with C25U, U26G, C27U, C28A, U29C, A30C
DNA 1: CAATCTGAATTCCGGTCTCCC
DNA 2: TGGTGGCTACGACGGGATT
B22: GAUACUC (DNA:RNA)
RNA: B8 RNA with G27U, G29C, G30U, U31C
DNA 1: CAATCTGAATTCCGGTCTCCC
DNA 2: TGGTGGCTACGACGGGATT
B23: UAGUCCA (DNA:RNA)
RNA: B8 RNA with G25U, A28U, G29C, G30C, U31A
DNA 1: CAATCTGAATTCCGGTCTCCC
DNA 2: TGGTGGCTACGACGGGATT
B24: AUAAGCG (DNA:RNA)
RNA: B1 RNA with C25A, C27A, C28A, U29G, A30C
DNA 1: CAATCTGAATTCCGGTCTCCC
DNA 2: TGGTGGCTACGACGGGATT
B25: AUGCUAU (DNA:RNA)
RNA: B1 RNA with C25A, C27G, G31U
DNA 1: CAATCTGAATTCCGGTCTCCC
DNA 2: TGGTGGCTACGACGGGATT
B26: CGUGCUU (DNA:RNA)
RNA: B1 RNA with U26G, C27U, C28G, U29C, A30U, G31U
DNA 1: CAATCTGAATTCCGGTCTCCC
DNA 2: TGGTGGCTACGACGGGATT
B27: GGGGGAC (DNA:RNA)
RNA: B8 RNA with A26G, A28G, G30A, U31C
DNA 1: CAATCTGAATTCCGGTCTCCC
DNA 2: TGGTGGCTACGACGGGATT
B28: GGAGCAC (DNA:RNA)
RNA: B1 RNA with C25G, U26G, C27A, C28G, U29C, G31C
DNA 1: CAATCTGAATTCCGGTCTCCC
DNA 2: TGGTGGCTACGACGGGATT
B29: UCCGUGG (DNA:RNA)
RNA: B1 RNA with C25U, U26C, C28G, A30G
DNA 1: CAATCTGAATTCCGGTCTCCC
DNA 2: TGGTGGCTACGACGGGATT
B30: CUGACAA (DNA:RNA)
RNA: B1 RNA with C27G, C28A, U29C, G31A
DNA 1: CAATCTGAATTCCGGTCTCCC
DNA 2: TGGTGGCTACGACGGGATT
B31: CCGGGCG (DNA:RNA)
RNA: B1 RNA with U26C, C27G, C28G, U29G, A30C
DNA 1: CAATCTGAATTCCGGTCTCCC
DNA 2: TGGTGGCTACGACGGGATT

Changes are numbered by the printed parent chain; changes in the protein carry UniProt numbers. This is one part of the list.

The assay concerns the target T1, RBFOX1 RRM. Briefly: EMSA; HiTS-Eq, 1 nM pool, 10 min; buffer printed only for the single-RNA assays: 10 mM Tris pH 7.5, 150 mM NaCl, 3.4 mM EDTA, 0.001% NP-40, 30 C. The note with it: tags: His6 N-terminal (pET28a); label: 5' 32P. The method, boiled down:
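Purified RbFox RRM, wild type or mutant, was incubated for 10 min in 50 µL with 1 nM of a 5′-radiolabelled RNA pool carrying 7 randomized nucleotides, whose flanks were annealed to DNA oligonucleotides, over a series of increasing protein concentrations. Unbound RNA was resolved on 8% native PAGE, cut out, reverse-transcribed, barcoded by PCR and sequenced on an Illumina HiSeq 2500. Relative association constants were derived from changes in read counts for each RNA species versus the control reaction and normalised to the cognate motif.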
Turning to B1, the binding signal is 0.006 KA relative to UGCAUGU.

On to B2, for which the binding signal is 0.000691 KA relative to UGCAUGU.

Take B3: the binding signal was 0.000845 KA relative to UGCAUGU.

In the case of B4, the binding signal was 0.0128 KA relative to UGCAUGU.

For B5, the binding signal was 0.0259 KA relative to UGCAUGU.

For the molecule B6, the binding signal is 0.0125 KA relative to UGCAUGU.

In the case of B7, the binding signal was 0.0171 KA relative to UGCAUGU.

In the case of B8, the binding signal is 0.0104 KA relative to UGCAUGU.

As to B9, the binding signal is 0.00518 KA relative to UGCAUGU.

As to B10, the binding signal is 0.017 KA relative to UGCAUGU.

As to B11, the binding signal was 0.015 KA relative to UGCAUGU.

As to B12, the binding signal was 0.0214 KA relative to UGCAUGU.

For B13, the binding signal is 0.0131 KA relative to UGCAUGU.

For B14, the binding signal is 0.00465 KA relative to UGCAUGU.

As for B15, the binding signal is 0.0116 KA relative to UGCAUGU.

With B16, the binding signal is 0.00182 KA relative to UGCAUGU.

In the case of B17, the binding signal is 0.00241 KA relative to UGCAUGU.

With B18, the binding signal is 0.00481 KA relative to UGCAUGU.

Turning to B19, the binding signal is 0.0138 KA relative to UGCAUGU.

Consider B20, for which the binding signal is 0.00285 KA relative to UGCAUGU.

Turning to B21, the binding signal is 0.00825 KA relative to UGCAUGU.

For the molecule B22, the binding signal is 0.0126 KA relative to UGCAUGU.

On to B23, for which the binding signal was 0.00652 KA relative to UGCAUGU.

For B24, the binding signal is 0.00479 KA relative to UGCAUGU.

As to B25, the binding signal is 0.00716 KA relative to UGCAUGU.

Take B26: the binding signal is 0.0157 KA relative to UGCAUGU.

For B27, the binding signal is 0.0152 KA relative to UGCAUGU.

Regarding B28, the binding signal was 0.0157 KA relative to UGCAUGU.

For B29, the binding signal is 0.00932 KA relative to UGCAUGU.

Consider B30, for which the binding signal was 0.00763 KA relative to UGCAUGU.

As to B31, the binding signal is 0.0149 KA relative to UGCAUGU.
